This passage reports EC50 results from patent US10858366B2 (priority 2016, dated 2020).

Assay in all cases: microbe, parasite or virus in culture
Assay [1] deals with NA_VIR_H1N1 (influenza virus in MDCK cells). As to conditions: unidentified influenza virus, 48 h, read-out: NA_VIR_H1N1 EC50.
The subject of assay [2] is NA_VIR_H3N2 (influenza virus in MDCK cells). To be noted: unidentified influenza virus, 48 h, read-out: NA_VIR_H3N2 EC50.
Assay [3] relates to NA_Hubei (influenza virus in MDCK cells). As to conditions: unidentified influenza virus, 48 h, read-out: NA_Hubei EC50.

Regarding `O=c1cnn2c(c1O)-c1nccn1C[C@@H]2[C@@H](c1ccc(F)cc1)c1cccc(Br)c1` [Example 30, (S)-6-((S)-(3-bromophenyl)(4-fluorophenyl)methyl)-11-hydroxy-5,6-dihydro-10H-imidazo[2′,1′:3,4]pyrazino[1,2-b]pyridazin-10-one], the values for the EC50 in assay [1], in assay [2] and in assay [3] were 45 nM, 190 nM and 65 nM, respectively.

As for `O=c1cnn2c(c1O)-c1ncc(Br)n1C[C@@H]2C(c1ccc(F)cc1)c1ccc(F)cc1` [Example 47, (S)-6-(bis(4-fluorophenyl)methyl)-3-bromo-11-hydroxy-5,6-dihydro-10H-imidazo[2′,1′:3,4]pyrazino[1,2-b]pyridazin-10-one], the values for the EC50 in assay [1], in assay [2] and in assay [3] were 290 nM, 840 nM and 560 nM, respectively.

For `O=c1ccn2c(c1O)-c1ncc(CO)n1C[C@@H]2C(c1ccccc1)c1ccccc1` [Example 54, (S)-6-benzhydryl-11-hydroxy-3-(hydroxymethyl)-5,6-dihydro-10H-imidazo [1,2-a]pyrido[2,1-c]pyrazin-10-one], the values for the EC50 in assay [1], in assay [2] and in assay [3] were 2600 nM, 4600 nM and 1600 nM, respectively.

With `O=c1ccn2c(c1O)-c1ncc(C(F)(F)F)n1C[C@@H]2C(c1ccccc1)c1ccccc1` [Example 58, (S)-6-benzhydryl-11-hydroxy-3-(trifluoromethyl)-5H-imidazo[1,2-a]pyrido[2,1-c]pyrazin-10(6H)-one], the figures for the EC50 in assay [1], in assay [2] and in assay [3] were 200 nM, 1800 nM and 820 nM, respectively.

Regarding `N#Cc1cnc2n1C[C@H](C(c1ccccc1)c1ccccc1)n1ccc(=O)c(O)c1-2` [Example 59, (S)-6-benzhydryl-11-hydroxy-10-oxo-5,6-dihydro-10H-imidazo[1,2-a]pyrido[2,1-c]pyrazine-3-carbonitrile], the results for the EC50 in assay [1], in assay [2] and in assay [3] were 1400 nM, 5700 nM and 1200 nM, respectively.

Regarding `CNCc1cnc2n1C[C@H](C(c1ccccc1)c1ccccc1)n1ccc(=O)c(O)c1-2` [Example 61, (S)-6-benzhydryl-11-hydroxy-3-((methylamino)methyl)-5,6-dihydro-10H-imidazo[1,2-a]pyrido[2,1-c]pyrazin-10-one], the EC50 in assay [1] amounted to 2300 nM; in assay [2], 5700 nM; in assay [3] it was 3400 nM.

Consider `O=c1ccn2c(c1O)-c1ncc(CNC3CCCCC3)n1C[C@@H]2C(c1ccccc1)c1ccccc1` [Example 63, (S)-6-benzhydryl-3-((cyclohexylamino)methyl)-11-hydroxy-5,6-dihydro-10H-imidazo[1,2-a]pyrido[2,1-c]pyrazin-10-one], for which the EC50 in assay [1] turned out to be 3200 nM; in assay [2] it was 6100 nM; in assay [3] it was 3900 nM.

In the case of `CN(C)Cc1cnc2n1C[C@H](C(c1ccccc1)c1ccccc1)n1ccc(=O)c(O)c1-2` [Example 64, (S)-6-benzhydryl-3-((dimethylamino)methyl)-11-hydroxy-5,6-dihydro-10H-imidazo[1,2-a]pyrido[2,1-c]pyrazin-10-one], the EC50 in assay [1] came out at 1700 nM; in assay [2], 4300 nM; in assay [3], 2400 nM.

On to `O=c1ccn2c(c1O)-c1ncc(CN3CCOCC3)n1C[C@@H]2C(c1ccccc1)c1ccccc1` [Example 67, (S)-6-benzhydryl-11-hydroxy-3-(morpholinomethyl)-5,6-dihydro-10H-imidazo[1,2-a]pyrido[2,1-c]pyrazin-10-one], for which the results for the half-maximal effective concentration (EC50) in assay [1], in assay [2] and in assay [3] were 4100 nM, 10000 nM and 3800 nM, respectively.

On to `CN(C)C(=O)c1cnc2n1C[C@H](C(c1ccccc1)c1ccccc1)n1ccc(=O)c(O)c1-2` [Example 68, (S)-6-benzhydryl-11-hydroxy-N,N-dimethyl-10-oxo-5,6-dihydro-10H-imidazo[1,2-a]pyrido[2,1-c]pyrazine-3-carboxamide], for which the figures for the concentration giving a half-maximal response (EC50) in assay [1], in assay [2] and in assay [3] were 6300 nM, 32000 nM and 17000 nM, respectively.

Turning to `CNC(=O)c1cnc2n1C[C@H](C(c1ccccc1)c1ccccc1)n1ccc(=O)c(O)c1-2` [Example 69, (S)-6-benzhydryl-11-hydroxy-N-methyl-10-oxo-5,6-dihydro-10H-imidazo[1,2-a]pyrido[2,1-c]pyrazine-3-carboxamide], the EC50 is 15000 nM in assay [1], above 50000 nM in assay [2] and 14000 nM in assay [3].

As to `COCCNC(=O)c1cnc2n1C[C@H](C(c1ccccc1)c1ccccc1)n1ccc(=O)c(O)c1-2` [Example 71, (S)-6-benzhydryl-11-hydroxy-N-(2-methoxyethyl)-10-oxo-5,6-dihydro-10H-imidazo[1,2-a]pyrido[2,1-c]pyrazine-3-carboxamide], the EC50 in assay [1] is 19000 nM; in assay [2], above 50000 nM; in assay [3], 27000 nM.

`O=c1ccn2c(c1O)-c1nccn1C1(COC1)N2C(c1ccccc1)c1ccccc1` [Example 79, 6-benzhydryl-11-hydroxy-6H,10H-spiro[imidazo[1,2-d]pyrido[2,1-f][1,2,4]triazine-5,3′-oxetan]-10-one]: the values for the EC50 in assay [1], in assay [2] and in assay [3] were 610 nM, 1500 nM and 390 nM, respectively.

Take `Cn1cnc2c1CN(C(c1ccccc1)c1ccccc1)n1ccc(=O)c(O)c1-2` [Example 82, 5-benzhydryl-10-hydroxy-3-methyl-4,5-dihydroimidazo[4,5-d]pyrido[1,2-b]pyridazin-9(3H)-one]: the EC50 in assay [1] stood at 1000 nM; in assay [2], 4000 nM; in assay [3], 1400 nM.

For orientation: EC50 means the concentration needed to bring the measured effect to its halfway point.
